# Measured values taken from PubChem BioAssay AID588591 (National Center for Advancing Translational Sciences (NCATS), 2011).
# Screen size: about 390,000 compounds; about 4,700 (1.2%) were called active. The inconclusive results got no clear call from the source; some entries with a clear call stand among them for comparison. Calls come from the whole dose curve; as a rule, active = well fitted inhibition curve with a large enough effect; inconclusive = small, poorly fitted or top-dose-only effect, or another doubt; inactive = no such curve, though single readings can be large or run the other way. Where the call is inconclusive, the potency comes from a doubtful curve fit.
# Target: DNA polymerase eta (Homo sapiens) (UniProt Q9Y253)
# Chain of UniProt Q9Y253 (Q9Y253 whole entry, looked up): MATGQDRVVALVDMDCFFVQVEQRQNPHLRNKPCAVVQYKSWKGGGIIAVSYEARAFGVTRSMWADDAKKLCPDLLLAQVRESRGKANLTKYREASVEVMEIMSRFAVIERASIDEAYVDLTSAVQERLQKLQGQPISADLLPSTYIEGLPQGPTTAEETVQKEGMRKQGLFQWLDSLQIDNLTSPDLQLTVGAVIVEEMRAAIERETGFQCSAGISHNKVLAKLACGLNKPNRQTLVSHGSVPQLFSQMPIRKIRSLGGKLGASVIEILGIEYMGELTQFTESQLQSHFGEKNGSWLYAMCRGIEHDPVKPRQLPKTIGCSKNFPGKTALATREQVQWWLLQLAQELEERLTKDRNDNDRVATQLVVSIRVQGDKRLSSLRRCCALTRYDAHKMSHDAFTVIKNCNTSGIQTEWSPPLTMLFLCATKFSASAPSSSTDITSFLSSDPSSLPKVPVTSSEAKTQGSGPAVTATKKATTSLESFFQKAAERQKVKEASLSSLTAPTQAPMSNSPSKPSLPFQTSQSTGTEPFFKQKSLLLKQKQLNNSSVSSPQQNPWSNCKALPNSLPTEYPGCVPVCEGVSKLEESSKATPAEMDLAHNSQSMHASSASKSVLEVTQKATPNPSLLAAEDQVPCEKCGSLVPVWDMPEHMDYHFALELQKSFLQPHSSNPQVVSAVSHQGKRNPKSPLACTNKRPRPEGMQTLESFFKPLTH
# Test: qHTS for Inhibitors of Polymerase Eta
# Details: recombinant Pol eta, fluorescent DNA replication assay; series mostly up to 114 µM; activity change, negative = inhibition: at the top concentration
# Summary of the method: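 Fluorescent replication assay: 50 nM final substrate added after a 15 min room-temperature compound preincubation with 10 nM enzyme. Signal taken at 0 min and again at 10 min.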
# % is set by controls: 0 for no effect and ±100 for the full control effect; potency is the fitted concentration of half-maximal effect; tags give direction and shape of the fitted curve.
SMILES,"activity change, negative = inhibition",Potency
CC(CC(=O)NCc1ccc(Cl)cc1)CC1=NS(=O)(=O)c2ccccc2N1 (configuration not stated),inactive: -8.52%,–
CC(C)CN(CC(C)C)C(=O)c1cc(S(=O)(=O)N2CCCCC2)c[nH]1,–,"inconclusive: 89.1 µM [inhibitor, partial curve, poor fit]"
CCOc1ccc(/C=N/NC(=O)CSc2n[nH]c(=O)[nH]c2=O)cc1OC,–,"inconclusive: 100 µM [inhibitor, partial curve, poor fit]"
CCOC(=O)c1c(N2C(=O)CC(Sc3ccccc3C(=O)O)C2=O)sc(C)c1C (configuration not stated),–,"inconclusive: 100 µM [inhibitor, partial curve, poor fit]"
C/C(=N\NC(=O)c1cc2ccccc2cc1O)c1cc2ccccc2o1,–,active: 56.2 µM
Clc1ccc(-c2nnc(-c3ccccc3)o2)cn1,–,"inconclusive: 100 µM [inhibitor, partial curve, poor fit]"
C=C(C)C(=O)Nc1cccc(C2=NOC3(C2)C[C@H](C(N)=O)N(C(=O)c2ccccc2)C3)c1 (some centres not stated),–,active: 12.6 µM
CC(C)CC1C(=O)N(Cc2cn(CCC3OCCCO3)nn2)CCS(=O)(=O)N1Cc1ccc(-c2ccc(Cl)nc2)cc1 (configuration not stated),–,"inconclusive: 11.2 µM [inhibitor, partial curve, poor fit]"
CCCCc1nc2sc3c(SCC(=O)NCc4ccco4)ncnc3c2c2c1CCC2,–,active: 22.4 µM
O=C(COC(=O)c1cc(Cl)nc(Cl)c1)NC1CCCCCC1,–,"inconclusive: 22.4 µM [inhibitor, full curve]"
CN(C)S(=O)(=O)c1ccc2nc(NC(=O)c3cccnc3)sc2c1,–,"inconclusive: 20 µM [inhibitor, full curve]"
CCOCCOC(=O)c1ccc(NC(=O)c2cc3ccccc3o2)cc1,inactive: -10.6%,–
C#Cc1ccc(C(=O)Nc2cc(C(N)=O)ccc2N2CCOCC2)cc1,–,"inconclusive: 28.2 µM [inhibitor, full curve]"
CCCCN1Cc2c(nc3cc(-c4ccco4)[nH]n3c2=O)C1=O,–,"inconclusive: 89.1 µM [inhibitor, partial curve, poor fit]"
CC(C)OCCCN(Cc1ccco1)C(=O)c1cc2c(s1)-c1ccccc1OC2,inactive: -11.5%,–
Cn1c(=O)c2c(nc(SCC(=O)NCc3ccc4c(c3)OCO4)n2Cc2ccc(Cl)cc2)n(C)c1=O,–,active: 89.1 µM
Cc1cccc(C)c1-n1ncc(C(=O)Nc2ccc3c(c2)OCCO3)c1C1CCN(C(=O)OC(C)(C)C)CC1,inactive: -18.5%,–
Cc1ccc(S(=O)(=O)N2CCCCC2)cc1C(=O)NCCCN1CCOCC1,inactive: -13.7%,–
CCOc1ccccc1N(C)C(=O)Cn1cnc2sc(C)c(S(=O)(=O)N3CCC(C)CC3)c2c1=O,inactive: -3.54%,–
Cc1ccc(N=Cc2c(O)n(-c3nccs3)c(=O)c3ccccc23)cc1,–,"inconclusive: 7.94 µM [inhibitor, full curve, poor fit]"
Cc1sc2nc(SCC(=O)N(C)c3ccccc3)n(C)c(=O)c2c1C,inactive: -2.72%,–

SMILES,"activity change, negative = inhibition",Potency
COC(=O)c1cc(S(=O)(=O)N2CCN(c3ccc(C(C)=O)cc3)CC2)cn1C,inactive: -17.5%,–
CC(=O)Nc1ccc(C(=O)CSc2nc3ccc(C)cc3[nH]2)cc1,–,"inconclusive: 28.2 µM [inhibitor, partial curve, poor fit]"
O=C(CSC1=Nc2ccccc2C2=NC(CC(=O)NCc3ccco3)C(=O)N12)NCc1ccco1 (configuration not stated),–,active: 15.8 µM
O=C(Nc1cccc(Cl)c1)c1c(NC(=O)C(F)(F)F)sc2c1CCCC2,–,active: 25.1 µM
O=C(c1ccco1)N(c1ccccn1)c1ccccn1,inactive: -8.79%,–
COc1ccc2cc3c(N)nn(C(=O)Cc4c[nH]c5ccccc45)c3nc2c1,–,"inconclusive: 44.7 µM [inhibitor, partial curve, poor fit]"
CCOC(=O)c1cnc2sc3c(n2c1=O)CCCC3,–,"inconclusive: 22.4 µM [inhibitor, single point]"
Cc1ccc(NC(=O)CCNS(=O)(=O)c2ccc3[nH]c(=O)oc3c2)cc1F,–,"inconclusive: 22.4 µM [inhibitor, full curve, poor fit]"
O=C(CSc1nnc(Cc2cccs2)n1-c1ccc(Cl)cc1)NCc1ccc2c(c1)OCO2,–,"inconclusive: 89.1 µM [inhibitor, partial curve, poor fit]"
COC(=O)C1=C(C)N(Cc2ccccc2)C(=NCc2cc(OC)c(OC)c(OC)c2)N[C@H]1c1ccc(Br)cc1,–,"inconclusive: 79.4 µM [inhibitor, partial curve, poor fit]"
CCOC(=O)C1=C(CSc2nc(C)ccc2C#N)OC(N)=C(C#N)C1c1cccc(OC)c1OC (configuration not stated),–,"inconclusive: 50.1 µM [inhibitor, partial curve, poor fit]"
COc1ccc(CSc2ccc(S(=O)(=O)N3CCCC3)cn2)cc1F,inactive: -18.3%,–
COCCCNC(=S)N1CCN(C(c2ccccc2)c2ccccc2)CC1,inactive: -20.9%,–
Cc1ccc(S(=O)(=O)/N=C2/NC(=O)/C(=C\c3ccccc3)S2)cc1,–,"inconclusive: 50.1 µM [inhibitor, partial curve]"
O=C(COC(=O)c1ccc([N+](=O)[O-])o1)Nc1ncc(Cl)cc1Cl,–,active: 22.4 µM
N#Cc1cn(CCOc2ccccc2F)c2ccccc12,–,"inconclusive: 56.2 µM [inhibitor, partial curve, poor fit]"
Cc1ccc(-c2cn(S(=O)(=O)c3cccc4nsnc34)nc2N)cc1,–,"inconclusive: 50.1 µM [inhibitor, partial curve, poor fit]"
O=c1cc(CCl)nc2scc(-c3ccccc3)n12,–,"inconclusive: 11.2 µM [inhibitor, full curve, poor fit]"
COc1cc2c(cc1OC)CN(C(=O)c1ccc(-c3ccccc3)cc1)CC2,–,"inconclusive: 15.8 µM [inhibitor, full curve, poor fit]"
COc1ccc(N2CC(C(=O)Nc3nnc(SCC(=O)N4CCCC4)s3)CC2=O)cc1 (configuration not stated),–,"inconclusive: 56.2 µM [inhibitor, partial curve, poor fit]"
O=c1[nH]c(C2CCN(S(=O)(=O)c3ccc(S(=O)(=O)NC4CC4)cc3)CC2)nc2c1nnn2Cc1ccc(F)cc1,–,"inconclusive: 79.4 µM [inhibitor, partial curve, poor fit]"
